Screen size: about 350,000 compounds; about 31,000 (8.9%) were called active. The inconclusive results got no clear call from the source; some entries with a clear call stand among them for comparison. The call rests on the fitted dose curve; in most records, active means well fitted inhibition curve with a large enough effect; inconclusive means small, poorly fitted or top-dose-only effect; inactive means no such curve, though single readings can be large or run the other way. Where the call is inconclusive, the potency comes from a doubtful curve fit.
target: Histone-lysine N-methyltransferase EHMT2 (Homo sapiens) (UniProt Q96KQ7); assay: qHTS Assay for Inhibitors of Histone Lysine Methyltransferase G9a; conditions: G9a H3K9 monomethylation, AlphaScreen, 2 h; activity, negative = inhibition: at 59 µM (top of the series) unless noted; further: nearly all actives have a fitted effect of over 75% in size
Chain of UniProt Q96KQ7 (Q96KQ7 whole entry, looked up): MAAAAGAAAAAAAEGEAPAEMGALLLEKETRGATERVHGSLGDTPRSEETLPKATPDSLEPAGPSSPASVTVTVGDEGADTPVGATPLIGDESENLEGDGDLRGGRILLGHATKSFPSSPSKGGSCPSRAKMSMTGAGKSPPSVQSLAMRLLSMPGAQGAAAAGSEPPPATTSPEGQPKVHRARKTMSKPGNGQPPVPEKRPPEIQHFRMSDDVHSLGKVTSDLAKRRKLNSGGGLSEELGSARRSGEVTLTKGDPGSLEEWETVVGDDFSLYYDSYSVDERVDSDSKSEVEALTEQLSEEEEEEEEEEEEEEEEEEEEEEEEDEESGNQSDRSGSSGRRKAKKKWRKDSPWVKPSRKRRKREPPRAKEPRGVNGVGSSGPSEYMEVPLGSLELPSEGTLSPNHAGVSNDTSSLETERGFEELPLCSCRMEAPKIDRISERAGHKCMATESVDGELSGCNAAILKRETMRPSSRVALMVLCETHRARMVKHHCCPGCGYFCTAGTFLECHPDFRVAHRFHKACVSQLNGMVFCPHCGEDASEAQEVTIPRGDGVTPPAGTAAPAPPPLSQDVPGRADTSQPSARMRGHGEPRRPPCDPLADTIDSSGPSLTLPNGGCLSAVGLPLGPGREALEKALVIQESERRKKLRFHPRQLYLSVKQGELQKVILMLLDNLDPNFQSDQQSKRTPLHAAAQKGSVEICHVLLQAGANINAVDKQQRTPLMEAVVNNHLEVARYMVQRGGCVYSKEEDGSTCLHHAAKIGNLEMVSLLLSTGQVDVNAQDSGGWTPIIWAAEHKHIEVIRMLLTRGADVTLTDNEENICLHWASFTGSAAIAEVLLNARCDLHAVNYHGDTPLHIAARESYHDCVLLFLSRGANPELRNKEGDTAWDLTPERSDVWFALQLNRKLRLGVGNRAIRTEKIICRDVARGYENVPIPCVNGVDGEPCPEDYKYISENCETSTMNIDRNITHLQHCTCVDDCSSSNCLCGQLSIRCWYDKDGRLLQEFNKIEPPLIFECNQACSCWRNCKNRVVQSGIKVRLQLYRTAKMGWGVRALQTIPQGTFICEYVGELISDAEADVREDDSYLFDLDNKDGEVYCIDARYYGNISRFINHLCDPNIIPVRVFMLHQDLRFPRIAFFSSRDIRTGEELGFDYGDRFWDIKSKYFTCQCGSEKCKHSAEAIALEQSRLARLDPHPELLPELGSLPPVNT
Procedure, shortened: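 Quantitative HTS format: methyltransferase activity on a biotin-tagged H3K9 peptide is measured by AlphaScreen, using a rabbit anti-monomethyl-H3K9 antibody with streptavidin donor and anti-IgG acceptor beads. Final levels are 20 nM enzyme, 500 nM peptide, 20 uM SAM; 2 h RT.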
On the % scale 0 is the no-effect control and ±100 the full control effect; potency means the concentration at half of the fitted maximal effect; tags describe the fitted curve by direction and shape.

| Structure (SMILES) | Potency | activity, negative = inhibition |
| --- | --- | --- |
| O=C(Cn1cnc2ccccc21)Nc1ccc(C(=O)O)cc1 | inactive | – |
| COc1ccc(-c2ccoc2)cc1[C@H]1[C@H]2C=CC[C@@H](C)[C@@H]2C(=O)N1Cc1ccccc1 | inconclusive: 12.6 µM [inhibitor, single point] | – |
| C[n+]1ccccc1/C=N/O | inactive | – |
| O=S(=O)(NCC(c1cccnc1)N1CCOCC1)c1cccs1 (stereo not given) | inconclusive: 39.8 µM [inhibitor, single point] | – |
| COc1ccccc1NC(=O)C/C(C)=N/NC(=O)COc1c(Br)cc(Br)cc1OC | inconclusive: 79.4 µM [inhibitor, partial curve, poor fit] | – |
| COc1ccccc1NC(=O)Cn1nnc(C(=O)Nc2ccccc2)c1N | inconclusive: 0.631 µM [inhibitor, full curve, poor fit] | – |
| O=C(C1CC1)N1CCc2cc(Br)cc(S(=O)(=O)N3CCN(c4ccccn4)CC3)c21 | inconclusive: 44.7 µM [inhibitor, partial curve] | – |
| Cc1ccc(Cn2c(C)c3cnn(CC(=O)NCc4ccccn4)c(=O)c3c2C)cc1 | inconclusive: 79.4 µM [inhibitor, single point] | – |
| CCOC(=O)c1ccc(-n2c(-c3ccc(C)cc3)c(C)n3c4c(=O)n(C)c(=O)n(C)c4nc23)cc1 | inactive | – |
| COc1ccc(-c2cc(-c3ccc4c(c3)NC(=O)CO4)nc3c2COc2ccc(F)cc2-3)cc1 | inactive | – |
| CCN(C(=O)CSc1nnnn1-c1ccccc1)c1c(N)n(Cc2ccccc2)c(=O)[nH]c1=O | active: 12.6 µM | – |
| O=C(CSc1nnnn1-c1ccccc1)NC1CCCc2ccccc21 (stereo not given) | active: 35.5 µM | – |
| COc1cc(CN2CCN(Cc3ccc(SC)cc3)CC2)cc(OC)c1O | active: 7.94 µM | – |
| CN1C=CC(=CC=C2C=CC(=O)C=C2)C=C1 | – | inactive: 22% [at 0.501 µM] |
| CCCn1c(SCC(=O)Nc2sc(C)c(C)c2C#N)nnc1C(C)C | inconclusive: 100 µM [inhibitor, partial curve, poor fit] | – |
| Cc1ccc(/C(=N/Nc2ncnc3ccccc23)C(=O)O)cc1 | inconclusive: 89.1 µM [inhibitor, single point] | – |
| CC(SCc1cc(=O)n2c([nH]c3ccccc32)c1C#N)C(=O)O (stereo not given) | inconclusive: 44.7 µM [inhibitor, partial curve, poor fit] | – |
| CCOc1ncnc2c1[nH]c1ccccc12 | inconclusive: 39.8 µM [inhibitor, single point] | – |
| CCCOC(=O)c1c(-c2ccc(OC)cc2)oc2ccc(-c3ccc(OC)nc3)cc12 | inconclusive: 89.1 µM [inhibitor, single point] | – |
| Cn1cc(CCC(=O)NC2CC2)c2ccccc21 | inconclusive: 89.1 µM [inhibitor, single point] | – |
| CCOc1ccccc1CNC(=O)c1ccc2c(c1)nc1n2CCCCC1 | inactive | – |
| Cc1c(Nc2nc3ccccc3n3c(C)nnc23)cccc1C(=O)O | inactive | – |
| CCOc1ccc2nc(NC(=S)NCc3ccccc3)sc2c1 | active: 7.08 µM | – |
| Cc1csc(=Nc2ccccc2)n1C | inconclusive: 79.4 µM [inhibitor, single point] | – |

| Structure (SMILES) | Potency | activity, negative = inhibition |
| --- | --- | --- |
| Cc1ccc(/C(O)=C2\C(=O)C(=O)N(C)C2c2ccccc2[N+](=O)[O-])cc1 (stereo not given) | – | inactive: 2.11% [at 0.501 µM] |
| Nc1[nH]nc2ncc3cc4ccccc4nc3c12 | active: 35.5 µM | – |
| CCOC(=O)C1=C(C)N=C2SC(C)C(=O)N2C1c1ccc(OCC)c(OCC)c1 (stereo not given) | inconclusive: 70.8 µM [inhibitor, partial curve, poor fit] | – |
| Cc1ccc(-c2cc(C(=O)N(Cc3ccc(C(C)(C)C)cc3)Cc3ccco3)no2)cc1 | inactive | – |
| CCc1ccc(N2CC(O)(c3cccs3)[N+]3=C2SCCC3)cc1 (stereo not given) | inconclusive: 89.1 µM [inhibitor, partial curve, poor fit] | – |
| OCC#CCSc1nnc(-c2ccc(Br)cc2)o1 | inactive | – |
| COc1ccc(-c2cc(C(=O)N3CCN(c4ccccc4O)CC3)c3ccccc3n2)cc1 | inconclusive: 3.16 µM [inhibitor, single point] | – |
| N#CC1=C2N=C(N)c3ccccc3N2C2=C(C(=O)CCC2)C1c1cccc(Cl)c1 (stereo not given) | inconclusive: 79.4 µM [inhibitor, single point] | – |
| C=CCSCC=C | – | inactive: -30.4% [at 2.33 µM] |
| Cc1cccc(C)c1NC(=O)CCCCCC1NC(=O)NC1C (stereo not given) | active: 12.6 µM | – |
| C/C(N)=C(/C#N)C(=O)COC(=O)c1cc(-c2cccc3ccccc23)nc2ccccc12 | inconclusive: 39.8 µM [inhibitor, single point] | – |
| COC(=O)c1ccccc1NC(=S)NC(=O)c1ccccc1C | inconclusive: 17.8 µM [inhibitor, partial curve, poor fit] | – |
| COc1ccc(-c2cc(C(=O)NC(C(=O)O)C(C)C)c(C)o2)cc1OC (stereo not given) | inconclusive: 28.2 µM [inhibitor, single point] | – |
| CSC1=N/C(=C\c2c(F)cccc2Cl)C(=O)S1 | inconclusive: 7.94 µM [inhibitor, partial curve, poor fit] | – |
| CC(c1ccccc1)N1C(=O)CC(Sc2ncccc2C(=O)O)C1=O (stereo not given) | active: 22.4 µM | – |
| CC(C#Cc1c([C@@H](C)Oc2ccccc2)nnn1Cc1ccccc1)Oc1ccccc1 (stereo not given in full) | – | inconclusive: -72.7% [inhibitor] |
| Cc1cc(NS(=O)(=O)c2ccccc2)c(C)c(Cl)c1O | active: 28.2 µM | – |
| Cc1ccnc(Nc2nc(-c3c(C)nc4sccn34)cs2)c1 | – | inconclusive: -109% [inhibitor] |
| CCOc1ccc(N2Nc3n[nH]c(N)c3N2)cc1 | active: 8.91 µM | – |
| CCc1cccc(C)c1NC(=O)CCn1c(=O)c2cccn2c2ccccc21 | inactive | – |
| CCOC(=O)c1ccc(N2C(=O)CC(N3CCC(C(=O)OCC)CC3)C2=O)cc1 (stereo not given) | active: 35.5 µM | – |
| CC1CC(C)CN(CCCn2c(=S)[nH]c3ccccc3c2=O)C1 (stereo not given) | active: 79.4 µM | – |
| Cn1cccc1Cc1nnc(SCC(=O)Nc2cccc(F)c2)n1-c1ccc(F)cc1 | inconclusive: 50.1 µM [inhibitor, partial curve, poor fit] | – |
| O=C(CSc1nnc(-c2ccc(Br)cc2)n1C1CCCCC1)N1CCCC1 | inconclusive: 25.1 µM [inhibitor, single point] | – |

| Structure (SMILES) | Potency | activity, negative = inhibition |
| --- | --- | --- |
| COc1ccccc1S(=O)Cc1ccc(C(=O)O)o1 (stereo not given) | inconclusive: 39.8 µM [inhibitor, single point] | – |
| CCC(=O)N(Cc1ccc(S(N)(=O)=O)cc1)C1CC(=O)N(c2ccc(OC)cc2)C1=O (stereo not given) | active: 8.91 µM | – |
| O=C(Nc1ccccc1)c1nccn1Cc1ccc(F)cc1 | inactive | – |
| COc1cccc(-c2nc(N3CCCCC3C)c3ccccc3n2)c1O (stereo not given) | active: 44.7 µM | – |
| COc1ccc(N2CCN(C(=O)c3ccncc3)CC2)cc1 | inconclusive: 6.31 µM [inhibitor, full curve, poor fit] | – |
| CC1CCN(c2cc(N3CCN(C(=O)c4ccc(F)c(F)c4)CC3)c([N+](=O)[O-])cc2F)CC1 | inconclusive: 8.91 µM [inhibitor, partial curve, poor fit] | – |
| Cc1cccc(N(Cc2ccccc2)C(=O)CCl)c1 | inactive | – |
| CCOc1ccc(-n2nc(CO)c(C(=O)NCc3cccs3)n2)cc1 | inactive | – |
| Cc1ccc([N+](=O)[O-])cc1S(=O)(=O)N1CCn2cccc2C1c1ccccc1 (stereo not given) | inconclusive: 11.2 µM [inhibitor, partial curve, poor fit] | – |
| O=C(O)c1[nH]c2ccc(Br)cc2c1CCN1C(=O)c2cccc([N+](=O)[O-])c2C1=O | inconclusive: 50.1 µM [inhibitor, partial curve, poor fit] | – |
| NC(=O)NCc1ccc(C(=O)OCc2ccncc2)cc1 | inconclusive: 100 µM [inhibitor, partial curve, poor fit] | – |
| Cc1ccc(S(=O)(=O)CCc2ccccn2)cc1 | – | inconclusive: -72.6% [inhibitor] [at 12.7 µM] |
| CC1Cc2cc(/C=C3/SC(=S)NC3=O)ccc2O1 (stereo not given) | inconclusive: 39.8 µM [inhibitor, partial curve, poor fit] | – |
| COc1ccc(N2CCN(Cc3cccn3-c3nnc(N4CCN(C5CCCCC5)CC4)s3)CC2)cc1 | inconclusive: 10 µM [inhibitor, partial curve] | – |
| CCOc1ccccc1CNC(=O)Cn1cc2c(n1)-c1c(oc(C(=O)N3CCCC3)c1C)CC2 | inconclusive: 39.8 µM [inhibitor, partial curve, poor fit] | – |
| Cc1ccc(S(=O)(=O)CCSC(=N)N)cc1 | inconclusive: 35.5 µM [inhibitor, partial curve, poor fit] | – |
| COc1ccc(C(CNC(=O)COc2ccc(-c3ccccc3)cc2)N2CCOCC2)cc1 (stereo not given) | inconclusive: 50.1 µM [inhibitor, partial curve] | – |
| O=C(CNC(=O)c1ccc(Br)cc1)N=Nc1c(O)[nH]c2ccc([N+](=O)[O-])cc12 | inconclusive: 89.1 µM [inhibitor, single point] | – |
| CNC(=S)NNC(=O)Cn1ccc(C)n1 | inconclusive: 31.6 µM [inhibitor, single point] | – |
| COc1ccc(/C=N/NC(=O)c2cnccn2)c(OC)c1OC | inconclusive: 44.7 µM [inhibitor, partial curve] | – |
| CCOP(=O)(O)c1ccccc1OCCOc1ccccc1P(=O)(O)OCC | active: 44.7 µM | – |
| COc1ccccc1Nc1nnc(SCc2cc(=O)n3ccsc3n2)s1 | inconclusive: 3.55 µM [inhibitor, partial curve, poor fit] | – |

— PubChem BioAssay AID504332 (National Center for Advancing Translational Sciences (NCATS), 2011)
